Results on 66 molecules are retold here after the supplement of paper PMC9446081.

Among all 39,000 compounds or so, about 220 (0.56%) showed activity. The list shows a part of the results.
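Note: static incubation at 37 °C against the wild-type strain, values averaged over two biological replicates.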

The test system of this experiment is Escherichia coli K-12 BW25113. As to the kind of experiment: relative growth (OD600 normalised to plate interquartile mean) (fraction); higher = less growth inhibition, active = 0.2 or less. The following applies: 50 µM; LB; incubation time: overnight (16-24 h).
For the molecule `C[C@H](CO)N1C[C@H](C)[C@@H](CN(C)C(=O)Cc2ccncc2)Oc2cc(C#CC3CCCC3)ccc2S1(=O)=O`, the relative growth is inactive: 0.958.
Then `CS(=O)(=O)c1ccc(C#N)cc1`, with inactive: 1.01; and `COc1ccc(NC(=O)N(C)C[C@H]2OCCCC[C@@H](C)Oc3ccc(NC(=O)CCC(F)(F)F)cc3C(=O)N([C@@H](C)CO)C[C@@H]2C)cc1`, with inactive: 1.01.
Regarding `Cc1noc(C)c1NC(=O)Nc1ccc2c(c1)C(=O)N([C@@H](C)CO)C[C@H](C)[C@H](CN(C)C(=O)C1CCCCC1)OCCCC[C@@H](C)O2`, the relative growth was inactive: 0.961.
Then `CNC(=O)C[C@H]1CC[C@@H]2[C@H](COC[C@@H](O)CN2C(=O)c2ccccn2)O1`, with inactive: 0.993; and `CC(=O)N(C)C[C@H]1Oc2ncc(C#C[C@@H](C)O)cc2C(=O)N([C@@H](C)CO)C[C@H]1C`, with inactive: 1.02; and `C[C@H](CO)N1C[C@H](C)[C@H](CN(C)C(=O)Cc2ccccc2)Oc2cc(-c3cncnc3)ccc2S1(=O)=O`, with inactive: 1.02.
Then `CN(C)C(=O)c1cccc(-c2cccc(-c3nc(C(=O)NC4CCCCC4)cc4c3[C@@H](CCO)N([S@](=O)C(C)(C)C)C4)c2)c1`, with inactive: 1.02.
Consider `CC(C)NC(=O)Nc1ccc2c(c1)CC(=O)N([C@@H](C)CO)C[C@H](C)[C@H](CN(C)Cc1ccc3c(c1)OCO3)O2`, for which the relative growth is inactive: 0.997.
Then `Cc1c(C)n2c3c(=O)n(C)c(=O)n(C)c3nc2n1CCO`, with inactive: 1.01; and `CN(C)C(CCOc1cccc2ccccc12)c1ccccc1.Cl` (stereo unspecified), with inactive: 0.686; and `Cc1ccc(S(=O)(=O)NCC[C@H]2CC[C@H](NS(=O)(=O)c3ccccc3Cl)[C@@H](CO)O2)cc1`, with inactive: 1.03.
For `CC(C)NC(=O)Nc1ccc2c(c1)CC(=O)N([C@@H](C)CO)C[C@H](C)[C@H](CN(C)S(=O)(=O)c1cccs1)O2`, the relative growth is inactive: 1.03.
For `c1ccc(CNc2ccc3c(ccc4c5ccccc5[nH]c34)n2)cc1`, the relative growth is inactive: 0.99.
Then `Cc1ccc(S(=O)(=O)N(C)C[C@@H]2Oc3ccc(N(C)C)cc3CC(=O)N([C@@H](C)CO)C[C@@H]2C)cc1`, with inactive: 1.02.
Then `COc1ccc(S(=O)(=O)N2C[C@H](O)COC[C@H]3O[C@@H](CC(=O)NCc4ccc(Cl)c(Cl)c4)CC[C@@H]32)cc1`, with inactive: 1.01; and `COc1ccc(S(=O)(=O)Nc2ccc3c(c2)C(=O)N([C@H](C)CO)C[C@@H](C)[C@H](CN(C)C(=O)Nc2ccccc2)OCCCC[C@@H](C)O3)cc1`, with inactive: 1.
Take `C[C@H]1CN([C@@H](C)CO)C(=O)c2cccc(NS(=O)(=O)c3ccc(Cl)cc3)c2O[C@H]1CN(C)S(C)(=O)=O`: the relative growth is inactive: 1.01.
Then `Cc1noc(C)c1NC(=O)N[C@@H]1CC[C@H](CC(=O)N2CCN(C)CC2)O[C@H]1CO`, with inactive: 1.03; and `C[C@H]1CN([C@@H](C)CO)C(=O)c2cc(NC(=O)Cc3ccccc3)ccc2O[C@@H]1CN(C)S(C)(=O)=O`, with inactive: 0.975.
Then `Cc1cccc(S(=O)(=O)N2C[C@H](O)COC[C@@H]3O[C@H](CC(=O)NCCCN4CCOCC4)CC[C@H]32)c1`, with inactive: 1.
`COc1ccc(NC(=O)N(C)C[C@@H]2Oc3ccc(NC(=O)Nc4ccc(C(F)(F)F)cc4)cc3C(=O)N([C@@H](C)CO)C[C@H]2C)cc1`: the relative growth is inactive: 1.03.
Turning to `C[C@H]1CN([C@@H](C)CO)C(=O)c2cccc(NC(=O)Nc3ccc4c(c3)OCO4)c2O[C@@H]1CN(C)C(=O)Nc1cccc2ccccc12`, the relative growth was inactive: 0.976.
With `CC(C)NC(=O)Nc1ccc2c(c1)C(=O)N([C@@H](C)CO)C[C@H](C)[C@@H](CN(C)Cc1ccc(C(=O)O)cc1)O2`, the relative growth is inactive: 1.01.
Then `COCC#Cc1ccc2c(c1)O[C@@H](CN(C)C(=O)C1CCOCC1)[C@@H](C)CN([C@@H](C)CO)S2(=O)=O`, with inactive: 1; and `C[C@@H]1CN([C@H](C)CO)C(=O)c2cc(NC(=O)Nc3ccccc3)ccc2O[C@@H]1CN(C)Cc1ccc(C(=O)Nc2ccccc2N)cc1`, with inactive: 0.975.
Then `CC1(COc2ccc3c(c2)ncn3-c2ccc3cccc(N4CCC(N)CC4)c3n2)COC1`, with inactive: 1.02; and `C=CCC[C@@H](Cc1ccc(F)cc1)C(=O)OC[C@@H](NC(=O)[C@@H](CC=C)CC(=O)N(CCO)Cc1ccccc1)c1ccccc1`, with inactive: 1.08.
Then `C[C@@H]1CCCCO[C@@H](CN(C)C(=O)Nc2ccccc2)[C@H](C)CN([C@H](C)CO)C(=O)c2cc(NC(=O)c3ccccc3)ccc2O1`, with inactive: 0.99; and `C[C@@H]1CN([C@H](C)CO)C(=O)c2cc(NC(=O)CCC(F)(F)F)ccc2O[C@@H](C)CCCCO[C@@H]1CN(C)C(=O)Cc1ccccc1`, with inactive: 0.965.
Take `O=C(O)Cn1c(=O)oc2ccccc21`: the relative growth is inactive: 0.99.
Take `CN(C)CCC=C1c2ccccc2COc2ccccc21.Cl`: the relative growth was inactive: 1.03.
Then `C[C@@H]1CN([C@H](C)CO)C(=O)Cc2cc(NC(=O)Cc3cn(C)c4ccccc34)ccc2O[C@@H]1CN(C)Cc1ccc(Oc2ccccc2)cc1`, with inactive: 1.02; and `COc1ccccc1C#Cc1cnc2c(c1)C(=O)N([C@H](C)CO)C[C@@H](C)[C@@H](CN(C)C(=O)CN(C)C)O2`, with inactive: 1.
`COCC(=O)Nc1ccccc1C(=O)O`: the relative growth is inactive: 1.02.
Then `C[C@@H]1CN([C@H](C)CO)C(=O)c2ccccc2-c2ccccc2CO[C@@H]1CN(C)Cc1cccc(C(F)(F)F)c1`, with inactive: 1.04; and `N=C(N)S/C=C\C(=O)O`, with inactive: 0.992.
Then `CC(C)C[C@H](N)C(=O)N[C@@H](C)C(=O)O`, with inactive: 1.02.
Then `COc1cccc(S(=O)(=O)Nc2ccc3c(c2)[C@@H]2C[C@H](CC(=O)NC4CCCCC4)O[C@@H](CO)[C@@H]2O3)c1`, with inactive: 1; and `FC(F)(F)c1nc2ccccc2[nH]1`, with inactive: 0.98; and `C[C@H](CO)N1C[C@H](C)[C@@H](CN(C)S(C)(=O)=O)Oc2ccc(NC(=O)NC3CCCCC3)cc2C1=O`, with inactive: 1.
Regarding `C[C@@H]1CCCCO[C@@H](CN(C)Cc2ccccc2)[C@H](C)CN([C@@H](C)CO)C(=O)c2cc(NS(=O)(=O)c3ccccc3)ccc2O1`, the relative growth is inactive: 0.966.
Then `Cc1noc(C)c1S(=O)(=O)Nc1ccc2c(c1)C(=O)N([C@H](C)CO)C[C@@H](C)[C@@H](CN(C)C)OCCCC[C@@H](C)O2`, with inactive: 0.995; and `CN1CCN(C(=O)C[C@@H]2C=C[C@@H](NC(=O)c3ccc4c(c3)OCO4)[C@H](CO)O2)CC1`, with inactive: 0.91; and `COCC#Cc1ccc2c(c1)O[C@@H](CN(C)Cc1ccc(F)cc1)[C@@H](C)CN([C@@H](C)CO)S2(=O)=O`, with inactive: 1.02.
For the molecule `CCC(=O)N(C)C[C@H]1Oc2ncc(C#C[C@@H](C)O)cc2C(=O)N([C@@H](C)CO)C[C@H]1C`, the relative growth was inactive: 1.02.
As to `C[C@@H]1CN([C@@H](C)CO)C(=O)c2cc(NC(=O)C3CC3)ccc2O[C@@H]1CN(C)S(=O)(=O)c1ccccc1`, the relative growth is inactive: 0.985.
Turning to `NC(=O)C[C@H](NC(=O)Cc1ccc(O)cc1O)C(=O)O`, the relative growth was inactive: 1.01.
Regarding `COc1cccc(NC(=O)N(C)C[C@@H]2Oc3cc(C#Cc4ccncc4)ccc3S(=O)(=O)N([C@@H](C)CO)C[C@@H]2C)c1`, the relative growth was inactive: 1.02.
In the case of `CC(O)C(=O)Nc1c(I)c(C(=O)NC(CO)CO)c(I)c(C(=O)NC(CO)CO)c1I` (stereo unspecified), the relative growth is inactive: 1.12.
Then `C[C@@H]1CN([C@@H](C)CO)C(=O)c2cc(NS(=O)(=O)c3ccccc3)ccc2O[C@H]1CN(C)S(C)(=O)=O`, with inactive: 0.987; and `C[C@@H]1CN([C@H](C)CO)C(=O)c2cc(NC(=O)CCN3CCOCC3)ccc2O[C@H]1CN(C)C(=O)Nc1ccc(F)cc1`, with inactive: 0.977.
In the case of `CC=Cc1ccc2n(c1=O)C[C@H]1[C@H](CO)[C@@H](C(=O)NCCc3cn(C)cn3)N(C(=O)C3CC3)[C@@H]21`, the relative growth was inactive: 1.
For the molecule `C[C@@H]1CN([C@@H](C)CO)C(=O)c2cccc(NC(=O)C3CCCCC3)c2O[C@@H]1CN(C)C(=O)Nc1ccc(C(F)(F)F)cc1`, the relative growth is inactive: 0.989.
Take `CCOC(=O)Nc1ccc(C)s1`: the relative growth is inactive: 0.998.
Then `Cc1ccc(S(=O)(=O)Nc2ccc3c(c2)C(=O)N([C@@H](C)CO)C[C@@H](C)[C@@H](CN(C)Cc2ccc(Cl)c(Cl)c2)O3)cc1`, with inactive: 0.978; and `C[C@@H]1CN([C@H](C)CO)C(=O)c2c(c3ccccc3n2C)-c2ccccc2CO[C@@H]1CN(C)C(=O)Nc1cccc(Cl)c1Cl`, with inactive: 1.02.
Then `NCC[C@H]1CC[C@H](NC(=O)c2ccccc2F)[C@H](CO)O1`, with inactive: 1.02; and `COc1ccc(CN(C)C[C@@H]2Oc3ccc(NC(=O)C4CC4)cc3CC(=O)N([C@@H](C)CO)C[C@@H]2C)cc1`, with inactive: 0.992; and `C[C@H](CO)N1C[C@H](C)[C@H](CN(C)Cc2ccc(C(=O)O)cc2)Oc2c(NC(=O)Nc3ccc(C(F)(F)F)cc3)cccc2C1=O`, with inactive: 0.998.
Then `O=C(C[C@H]1CC[C@@H]2[C@H](COC[C@@H](O)CN2C(=O)Nc2cccc(F)c2)O1)NCCCN1CCOCC1`, with inactive: 0.949.
As to `Cc1ccc(S(=O)(=O)N(C)C[C@@H]2Oc3c(NC(=O)C4CCOCC4)cccc3C(=O)N([C@@H](C)CO)C[C@H]2C)cc1`, the relative growth was inactive: 0.989.
Then `C=CN1CCCC1=O`, with inactive: 0.978; and `C[C@H](CO)N1C[C@H](C)[C@H](CN(C)Cc2ccc(C(=O)O)cc2)OCCCC[C@H](C)Oc2ccc(NC(=O)CCC(F)(F)F)cc2C1=O`, with inactive: 1.04.
Then `COC[C@@H](C)Nc1ncnc2nc[nH]c12`, with inactive: 1.01; and `CC(C)NC(=O)N(C)C[C@@H]1Oc2ccc(NC(=O)Cc3ccccc3)cc2C(=O)N([C@H](C)CO)C[C@H]1C`, with inactive: 0.996.
